# Results taken from the supplement of paper PMC8728848.
# The other results are listed elsewhere or left out.
# Columns and labels:
# Test in all cases: glycan array binding signal (z-score within array); higher = stronger binding
# Details in all cases: glycan notation: IUPAC condensed, linker removed
# [1] = molecular target: Fuc(a1-2)[GalNAc(a1-3)]Gal(b1-3)GlcNAc(b1-6)GalNAc
# Method in brief: (§1)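 From the Consortium for Functional Glycomics database, 3228 arrays were curated, keeping only those whose protein sequence was available. Binding is given as a within-array Z-score averaged across arrays sharing a protein sequence and across linkers. Negative Z-scores can be read as non-binding.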
# [2] = molecular target: Fuc(a1-2)[GalNAc(a1-3)]Gal(b1-4)Glc
# Method in brief: as §1
# [3] = molecular target: Fuc(a1-2)[GalNAc(a1-3)]Gal(b1-4)GlcNAc
# Method in brief: as §1
# [4] = molecular target: Fuc(a1-2)[GalNAc(a1-3)]Gal(b1-4)GlcNAc(b1-2)Man
# Method in brief: as §1
# [5] = molecular target: Fuc(a1-2)[GalNAc(a1-3)]Gal(b1-4)GlcNAc(b1-2)Man(a1-3)[Fuc(a1-2)[GalNAc(a1-3)]Gal(b1-4)GlcNAc(b1-2)Man(a1-6)]Man(b1-4)GlcNAc(b1-4)GlcNAc
# Method in brief: as §1
# [6] = molecular target: Fuc(a1-2)[GalNAc(a1-3)]Gal(b1-4)GlcNAc(b1-2)Man(a1-3)[Fuc(a1-2)[GalNAc(a1-3)]Gal(b1-4)GlcNAc(b1-2)Man(a1-6)]Man(b1-4)GlcNAc(b1-4)[Fuc(a1-6)]GlcNAc
# Method in brief: as §1
# [7] = molecular target: Fuc(a1-2)[GalNAc(a1-3)]Gal(b1-4)GlcNAc(b1-3)Gal(b1-4)GlcNAc
# Method in brief: as §1
# [8] = molecular target: Fuc(a1-2)[GalNAc(a1-3)]Gal(b1-4)GlcNAc(b1-3)Gal(b1-4)GlcNAc(b1-3)Gal(b1-4)GlcNAc
# Method in brief: as §1
# [9] = molecular target: Fuc(a1-2)[GalNAc(a1-3)]Gal(b1-4)GlcNAc(b1-3)GalNAc
# Method in brief: as §1
# [10] = molecular target: Fuc(a1-2)[GalNAc(a1-3)]Gal(b1-4)GlcNAc(b1-3)[Fuc(a1-2)[GalNAc(a1-3)]Gal(b1-4)GlcNAc(b1-6)]GalNAc
# Method in brief: as §1
# [11] = molecular target: Fuc(a1-2)[GalNAc(a1-3)]Gal(b1-4)GlcNAc(b1-6)GalNAc
# Method in brief: as §1
# [12] = molecular target: Fuc(a1-2)[GalNAc(a1-3)]Gal(b1-4)[Fuc(a1-3)]GlcNAc
# Method in brief: as §1
# [13] = molecular target: Fuc(a1-2)[GalNAc(a1-3)]Gal(b1-4)[Fuc(a1-3)]GlcNAc(b1-3)GalNAc
# Method in brief: as §1
# [14] = molecular target: Fuc(a1-2)[GalNAc(a1-4)]Gal(b1-4)GlcNAc
# Method in brief: as §1
# [15] = molecular target: Fuc(a1-2)[GalNAc(b1-3)]Gal
# Method in brief: as §1
# [16] = molecular target: Fuc(a1-3)GlcNAc
# Method in brief: as §1
# [17] = molecular target: Fuc(a1-3)[Gal(b1-4)]Glc6S
# Method in brief: as §1
# [18] = molecular target: Fuc(a1-3)[Gal(b1-4)]GlcNAc
# Method in brief: as §1
# [19] = molecular target: Fuc(a1-3)[Gal(b1-4)]GlcNAc(b1-2)Man
# Method in brief: as §1
# [20] = molecular target: Fuc(a1-3)[Gal(b1-4)]GlcNAc(b1-2)Man(a1-3)[Fuc(a1-3)[Gal(b1-4)]GlcNAc(b1-2)Man(a1-6)]Man(b1-4)GlcNAc(b1-4)GlcNAc
# Method in brief: as §1
# [21] = molecular target: Fuc(a1-3)[Gal(b1-4)]GlcNAc(b1-2)Man(a1-3)[Fuc(a1-3)[Gal(b1-4)]GlcNAc(b1-2)Man(a1-6)]Man(b1-4)GlcNAc(b1-4)[Fuc(a1-6)]GlcNAc
# Method in brief: as §1
# [22] = molecular target: Fuc(a1-3)[Gal(b1-4)]GlcNAc(b1-3)Gal(b1-3)[Fuc(a1-4)]GlcNAc
# Method in brief: as §1
# [23] = molecular target: Fuc(a1-3)[Gal(b1-4)]GlcNAc(b1-3)Gal(b1-4)[Fuc(a1-3)]GlcNAc
# Method in brief: as §1
# [24] = molecular target: Fuc(a1-3)[Gal(b1-4)]GlcNAc(b1-3)Gal(b1-4)[Fuc(a1-3)]GlcNAc(b1-3)Gal(b1-4)[Fuc(a1-3)]GlcNAc
# Method in brief: as §1
# [25] = molecular target: Fuc(a1-3)[Gal(b1-4)]GlcNAc(b1-3)GalNAc
# Method in brief: as §1
# [26] = molecular target: Fuc(a1-3)[Gal(b1-4)]GlcNAc(b1-6)GalNAc
# Method in brief: as §1
# [27] = molecular target: Fuc(a1-3)[Gal(b1-4)]GlcNAc(b1-6)[Gal(b1-3)GlcNAc(b1-3)]Gal(b1-4)Glc
# Method in brief: as §1
# [28] = molecular target: Fuc(a1-3)[Gal(b1-4)]GlcNAc6S
# Method in brief: as §1
# [29] = molecular target: Fuc(a1-3)[Gal3S(b1-4)]Glc
# Method in brief: as §1
# [30] = molecular target: Fuc(a1-3)[Gal3S(b1-4)]GlcNAc
# Method in brief: as §1
# [31] = molecular target: Fuc(a1-3)[Gal3S(b1-4)]GlcNAc6S
# Method in brief: as §1
# [32] = molecular target: Fuc(a1-3)[GalNAc(b1-4)]GlcNAc
# Method in brief: as §1
# [33] = molecular target: Fuc(a1-3)[GalNAc(b1-4)]GlcNAc6S
# Method in brief: as §1
# [34] = molecular target: Fuc(a1-4)GlcNAc
# Method in brief: as §1
# [35] = molecular target: Fuc(b1-3)GlcNAc
# Method in brief: as §1
# [36] = molecular target: Gal(a1-2)Gal
# Method in brief: as §1
# [37] = molecular target: Gal(a1-3)Gal
# Method in brief: as §1
# [38] = molecular target: Gal(a1-3)Gal(b1-3)GlcNAc
# Method in brief: as §1
# [39] = molecular target: Gal(a1-3)Gal(b1-3)GlcNAc(b1-2)Man
# Method in brief: as §1
# [40] = molecular target: Gal(a1-3)Gal(b1-3)GlcNAc(b1-2)Man(a1-3)[Gal(a1-3)Gal(b1-3)GlcNAc(b1-2)Man(a1-6)]Man(b1-4)GlcNAc(b1-4)GlcNAc
# Method in brief: as §1
# [41] = molecular target: Gal(a1-3)Gal(b1-3)GlcNAc(b1-3)GalNAc
# Method in brief: as §1
# [42] = molecular target: Gal(a1-3)Gal(b1-3)GlcNAc(b1-6)GalNAc
# Method in brief: as §1
# [43] = molecular target: Gal(a1-3)Gal(b1-3)[Fuc(a1-4)]GlcNAc(b1-2)Man(a1-3)[Gal(a1-3)Gal(b1-3)[Fuc(a1-4)]GlcNAc(b1-2)Man(a1-6)]Man(b1-4)GlcNAc(b1-4)GlcNAc
# Method in brief: as §1
# [44] = molecular target: Gal(a1-3)Gal(b1-4)Glc
# Method in brief: as §1
# [45] = molecular target: Gal(a1-3)Gal(b1-4)GlcNAc
# Method in brief: as §1
binder,measurement,setting,value
PX14343A-bvu-539-29-539 (Bacteroides vulgatus) (protein) DSLTESSSNTFWQTPDDALMALASCYDALQSNQLYNSDQYSLGPLYMDCISDNGGHFNWSGWMEGYDMAMGIHTPSSSIIGSYWKDCYEVISRCNVLIANIDRVDMDASQKAIYQAEAKTIRALMYINLTMTYQDVPFLTAPLTIDEAECEKTDRAAIVAHVMTDLQDAAEVLPQNASSRGHITKGAALSLLGRVALYNEKWDDAIAAYKQVQGLGYSLDPSYAKLFTQSGETSPEIIFAVRYEGPGMSEGAAFNAHWNTPLEAMNGTIDLADAYYCKDGKPTTDTKIAELNGGGGLDVSKPNPAHFENRDPRLYSTLFVPGMLWNGKGGIDTSASNPYANVYGGAAASLSTVYVYKYFDPTDTSNSWDNGQDFYVVRYAEVLLSLAEAMVQKGGYVYSDVTALVNEVRQRADVNMPTVEEVEGTSLSKDELLEVIKHERRVELAFEGLRLFDLYRWKELDKAVANIENERTMYGLAYEARKFNGERDYVWPLPTAELDTNKKLVQHDLWK,glycan array binding signal (z-score),[1],-0.292
same,glycan array binding signal (z-score),[2],-0.387
same,glycan array binding signal (z-score),[3],-0.314
same,glycan array binding signal (z-score),[4],-0.396
same,glycan array binding signal (z-score),[5],0.385
same,glycan array binding signal (z-score),[6],-0.205
same,glycan array binding signal (z-score),[7],-0.354
same,glycan array binding signal (z-score),[8],0.052
same,glycan array binding signal (z-score),[9],-0.537
same,glycan array binding signal (z-score),[10],0.157
same,glycan array binding signal (z-score),[11],-0.065
same,glycan array binding signal (z-score),[12],-0.368
same,glycan array binding signal (z-score),[13],-0.171
same,glycan array binding signal (z-score),[14],0.146
same,glycan array binding signal (z-score),[15],-0.403
same,glycan array binding signal (z-score),[16],-0.299
same,glycan array binding signal (z-score),[17],-0.281
same,glycan array binding signal (z-score),[18],-0.297
same,glycan array binding signal (z-score),[19],-0.188
same,glycan array binding signal (z-score),[20],0.132
same,glycan array binding signal (z-score),[21],0.575
same,glycan array binding signal (z-score),[22],0.203
same,glycan array binding signal (z-score),[23],-0.107
same,glycan array binding signal (z-score),[24],0.016
same,glycan array binding signal (z-score),[25],-0.175
same,glycan array binding signal (z-score),[26],-0.298
same,glycan array binding signal (z-score),[27],-0.318
same,glycan array binding signal (z-score),[28],0.043
same,glycan array binding signal (z-score),[29],-0.229
same,glycan array binding signal (z-score),[30],-0.346
same,glycan array binding signal (z-score),[31],-0.338
same,glycan array binding signal (z-score),[32],0.035
same,glycan array binding signal (z-score),[33],-0.245
same,glycan array binding signal (z-score),[34],-0.448
same,glycan array binding signal (z-score),[35],-0.503
same,glycan array binding signal (z-score),[36],-0.198
same,glycan array binding signal (z-score),[37],-0.126
same,glycan array binding signal (z-score),[38],0.018
same,glycan array binding signal (z-score),[39],-0.278
same,glycan array binding signal (z-score),[40],0.106
same,glycan array binding signal (z-score),[41],-0.01
same,glycan array binding signal (z-score),[42],-0.397
same,glycan array binding signal (z-score),[43],-0.005
same,glycan array binding signal (z-score),[44],-0.306
same,glycan array binding signal (z-score),[45],-0.412
